Scores whose standard error is large were omitted. Two further conditions of the source, in which the scores hardly spread, are not listed. Read del as a deletion of the residues named and ins as an insertion between two positions. For some of these results: How much ogerin was present is not stated here.
B1: GPR68, Q15743 (parent)
chain: MGNITADNSSMSCTIDHTIHQTLAPVVYVTVLVVGFPANCLSLYFGYLQIKARNELGVYLCNLTVADLFYICSLPFWLQYVLQHDNWSHGDLSCQVCGILLYENIYISVGFLCCISVDRYLAVAHPFRFHQFRTLKAAVGVSVVIWAKELLTSIYFLMHEEVIEDENQHRVCFEHYPIQAWQRAINYYRFLVGFLFPICLLLASYQGILRAVRRSHGTQKSRKDQIQRLVLSTVVIFLACFLPYHVLLLVRSVWEASCDFAKGVFNAYHFSLLLTSFNCVADPVLYCFVSETTHRDLARLRGACLAFLTCSRTGRAREAYPLGAPEASGKSGAQGEEPELLTKLHPAFQTPNSPGSGGFPTGRLA

Tests used:
[1] = variants of: B1; assay: cAMP reporter score (Enrich2 score, wild type = 0); higher = more signal; HEK293T, FACS bins
[2] = variants of: B1; assay: surface expression score (Enrich2 score, wild type = 0); higher = more signal; HEK293T, FACS bins

Row | Variant | cAMP reporter score ([1]; pH 5.5) | cAMP reporter score ([1]; pH 6) | cAMP reporter score ([1]; pH 6, modulator: ogerin) | cAMP reporter score ([1]; pH 6.5, modulator: ogerin) | surface expression score [2]
1 | L238Q | -0.457 | 0.75 | 0.627 | -0.118 | -2.79
2 | L238S | 0.238 |  | 0.515 | -0.705 | -0.306
3 | L238T | 0.562 | 0.038 | 0.26 | -0.463 | 0.032
4 | L238V | 1.32 |  | 1.21 | 0.522 | 2.48
5 | L238W | -1.09 | -1.7 | -1.37 | -1.66 | -2.83
6 | L238Y | -0.999 | -0.837 | -1.74 | -1.57 | -1.5
7 | L238_C240del | -0.763 | -2.43 |  | -1.52 | -1.82
8 | A239_C240del | -1.53 |  | -2.02 | -1.84 | 
9 | A239_C240insGSG | -1.65 |  | -2.65 | -2 | -2.53
10 | A239_F241del | -1.34 | -0.433 | -2.65 | -1.16 | -2.51
11 | A239del | -1.37 | -1.35 | -1.48 | -0.478 | -0.01
12 | C240_F241insG | -1.38 | -1.22 |  | -1.33 | -2.39
13 | C240_F241insGSG | -2.1 |  | -1.68 | -0.601 | -2.25
14 | F241A | -0.281 | -0.755 | -0.165 | -0.767 | -1.95
15 | F241C | -0.711 | -1.16 | -1.43 | -0.611 | -2.81
16 | F241D | -0.668 | -1.36 | -1.59 | -0.706 | -2.17
17 | F241E | -0.203 | -0.9 | 0.14 | -0.588 | -1.52
18 | F241G | -1.04 | -0.626 | -1.4 | -0.354 | -2.13
19 | F241H | -0.018 | 2.15 | 0.796 | 2.28 | -2.17
20 | F241I | 0.778 | -0.034 | -0.134 | 0.203 | -1.62
21 | F241K | -0.404 |  |  | -0.425 | -0.43
22 | F241L | -0.421 | -0.331 | -0.735 | -0.117 | -1.06

Row | Variant | cAMP reporter score ([1]; pH 5.5) | cAMP reporter score ([1]; pH 6) | cAMP reporter score ([1]; pH 6, modulator: ogerin) | cAMP reporter score ([1]; pH 6.5, modulator: ogerin) | surface expression score [2]
23 | F241M | 0.491 |  | -0.073 |  | -0.559
24 | F241P | -0.73 | -0.599 |  | -0.775 | -1.6
25 | F241Q | -0.256 | 0.273 | -0.165 |  | -1.04
26 | F241S | 0.427 |  | -0.259 |  | -1.11
27 | F241T | -0.057 | -0.963 | -1.92 | -2.56 | 
28 | F241V | -0.314 | 2.06 | -0.423 | -0.894 | -2.79
29 | F241W | 1.11 |  | -1.3 |  | -2.4
30 | F241Y | -0.641 | -0.325 | -0.761 | -0.996 | -0.133
31 | F241_L242insG | -1.65 | -1.57 | -1.64 | -0.935 | -2.64
32 | F241_L242insGS | -1.87 | -1.11 | -1.21 | -1.58 | -2.42
33 | F241_P243del | -1.98 | -1.51 | -2.24 | -1.12 | -2.08
34 | L242A | 0.516 | 0.455 | 0.605 | 0.784 | 1.23
35 | L242C | 0.766 | -0.702 | 0.257 | 0.158 | 0.288
36 | L242D | -2.14 |  | -2.29 | -0.428 | 
37 | L242E | -1.66 | -0.433 | -1.42 | -1.29 | -2.24
38 | L242F | -0.352 | 0.219 | 0.013 | -0.125 | -0.77
39 | L242G | 1.31 | -0.143 | 1.52 | 0.051 | 2.42
40 | L242H | -0.635 | -0.712 | -0.656 | -0.99 | -1.73
41 | L242I | 1.05 | 0.573 | -0.126 | 1.31 | -1.93
42 | L242K | -1.43 | 0.171 | -0.634 |  | -4.38
43 | L242M | -0.07 | 0.197 | -0.117 | -0.232 | 1.3
44 | L242N | -1.24 | -1.32 | -2.01 | -1.23 | -1.96

Row | Variant | cAMP reporter score ([1]; pH 5.5) | cAMP reporter score ([1]; pH 6) | cAMP reporter score ([1]; pH 6, modulator: ogerin) | cAMP reporter score ([1]; pH 6.5, modulator: ogerin) | surface expression score [2]
45 | L242P | -1.65 | -1.28 | -1.32 | -0.786 | -2.68
46 | L242Q | -1.67 | -1.04 | -1.03 | -1.35 | -1.91
47 | L242R | -1.17 | -1.08 | -1.33 | -1.17 | -2.58
48 | L242S | 0.373 | -0.511 | -0.181 | -0.418 | 0.403
49 | L242T | 0.422 | -0.058 | 0.994 | 0.722 | 0.207
50 | L242V | 0.597 | 0.242 | 1.02 | 0.777 | -0.273
51 | L242W | -0.27 | -1.29 | -0.653 | -0.579 | -2.27
52 | L242Y | -1.52 | -0.998 | -1.51 | -1.21 | -2.63
53 | L242_P243del | -1.44 | -1.09 | -2.13 | -0.914 | -2.5
54 | L242_Y244del | -0.878 | -1.52 | -1.76 | -1.88 | -2.92
55 | P243A | -0.713 | -0.514 | -1.41 | -0.926 | -2.12
56 | P243C | -1.84 | -1.05 | -2.64 | -0.898 | -1.98
57 | P243D | -1.89 | -2.3 | -1.01 | -0.75 | -1.77
58 | P243E | -1.41 | -1.23 | -1.02 | -0.658 | -1.69
59 | P243F | -1.08 | -0.871 | -1.81 | -0.789 | -0.461
60 | P243G | -1.36 | -1.2 | -1.45 | -0.868 | -1.55
61 | P243H | -2.14 | -2.07 | -1.64 | -1.13 | -2.74
62 | P243I | -1.62 | -0.319 | -1.3 | -1.17 | -2.68
63 | P243K | -1.69 | -0.823 | -1.37 | -0.533 | -2.72
64 | P243L | -1.7 | -1.14 | -1.78 | -1.22 | -2.44

Reference: the GPR68 mutational scans of Howard et al. (2025)
